# Laboratory results published in US20150284465A1 (Chugai, published 2015).
# T1: SR344 (N-terminal 1st to 344th amino acids of soluble human IL-6R) (human, UniProt P08887 20-344, limits assumed)
# T1 sequence (looked up): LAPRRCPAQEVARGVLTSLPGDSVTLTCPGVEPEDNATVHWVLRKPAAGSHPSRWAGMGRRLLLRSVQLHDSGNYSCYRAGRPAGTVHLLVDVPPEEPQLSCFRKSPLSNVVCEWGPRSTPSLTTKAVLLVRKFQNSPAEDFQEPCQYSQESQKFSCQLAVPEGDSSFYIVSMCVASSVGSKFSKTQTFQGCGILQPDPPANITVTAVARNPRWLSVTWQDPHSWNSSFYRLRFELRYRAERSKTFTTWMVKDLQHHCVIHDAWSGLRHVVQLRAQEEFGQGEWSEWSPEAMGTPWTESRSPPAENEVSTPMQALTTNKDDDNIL
# Assays:
# [1] = molecular target: T1, SR344 (N-terminal 1st to 344th amino …); assay: cell-based or functional assay
# [2] = molecular target: T1, SR344 (N-terminal 1st to 344th amino …); assay: SPR (Biacore T100), antibody captured on anti-IgG (γ-chain specific) F(ab')2, SR344 as analyte, pH 7.4, 37 C; determined with Fv5-IgG1
# [3] = molecular target: T1, SR344 (N-terminal 1st to 344th amino …); assay: SPR (Biacore T100), SR344 as analyte, 37 C; determined with Fv5-IgG1
Binder,"BaF/gp130-neutralizing activity, 50% inhibitory concentration against TOCILIZUMAB [1]","BaF/gp130-neutralizing activity, 50% inhibitory concentration against the control (VQ8F11-21 hIgG1) [1]",Kd [2],koff [2],fold higher affinity than TOCILIZUMAB [3]
"Fv5-M83 (antibody, human IgG1, kappa) heavy: QVQLQESGPGLVKPSETLSLTCAVSGYSISDDHAVSWVRQPPGEGLEWIGFISYSGITNYNPTLQDRVTISRDNSKNTLYLQMNSLRAEDTAVYYCARLLARATAMDVWGEGTLVTVSS[sequence of human IgG1 constant region with changes not given] light: DIQMTQSPSSLSASVGDSVTITCQASQDISSYLNWYQQKPGKAPELLIYYGSELESGVPSRFSGSGSGTDFTFTISSLEAEDAATYYCGQGNRLPYTFGQGTKVEIERTVAAPSVFIFPPSDEQLKSGTASVVCLLNNFYPREAKVQWKVDNALQSGNSQESVTEQDSKDSTYSLSSTLTLSKADYEKHKVYACEVTHQGLSSPVTKSFNRGEC",> 100 fold,~10 fold,,,
"Fv5-IgG1 (antibody, also called VH5-IgG1/VL5-kappa) heavy: QVQLQESGPGLVKPSETLSLTCAVSGYSISDDHAVSWVRQPPGEGLEWIGFISYSGITNYNPTLQDRVTISRDNSKNTLYLQMNSLRAEDTAVYYCARLLARATAMDVWGEGTLVTVSS[sequence of human IgG1 constant region not given] light: DIQMTQSPSSLSASVGDSVTITCQASQDISSYLNWYQQKPGKAPELLIYYGSELESGVPSRFSGSGSGTDFTFTISSLEAEDAATYYCGQGNRLPYTFGQGTKVEIERTVAAPSVFIFPPSDEQLKSGTASVVCLLNNFYPREAKVQWKVDNALQSGNSQESVTEQDSKDSTYSLSSTLTLSKADYEKHKVYACEVTHQGLSSPVTKSFNRGEC",,,0.025 nM,2.8e-05 s⁻¹,~100 fold
